# Results reported in patent US20250304706A1 (Astellas, published 2025).
# Numbering of substitutions follows the chain as printed.
# B1: BTE-0001 (bispecific antibody, human IgG1, kappa, L234A L235A, N297G)
# heavy: QVQLVESGGGVVQPGGSLRLSCAASGFTFSSYGMHWVRQAPGKGLEWVAVIWYDGRNKYYADSVKGRFTISRDNSKNTLYLQMNSLRAEDTAVYYCTRDHSGSGSYYIDYWGQGTLVTVSSASTKGPSVFPLAPSSKSTSGGTAALGCLVKDYFPEPVTVSWNSGALTSGVHTFPAVLQSSGLYSLSSVVTVPSSSLGTQTYICNVNHKPSNTKVDKKVEPKSCDKTHTCPPCPAPEAAGGPSVFLFPPKPKDTLMISRTPEVTCVVVDVSHEDPEVKFNWYVDGVEVHNAKTKPREEQYGSTYRVVSVLTVLHQDWLNGKEYKCKVSNKALPAPIEKTISKAKGQPREPQVYTLPPSRDELTKNQVSLSCAVKGFYPSDIAVEWESNGQPENNYKTTPPVLDSDGSFFLVSKLTVDKSRWQQGNVFSCSVMHEALHNHYTQKSLSLSPGK
# light: EIAMTQSPATLSVSPGERATLSCRASQSVSSNLAWYQQKPGQAPRLLIYGASTRATGLPARFSGSGSGTEFTLTISSLQSEDFAVYYCQQYNNFWTFGQGTKVEIKRTVAAPSVFIFPPSDEQLKSGTASVVCLLNNFYPREAKVQWKVDNALQSGNSQESVTEQDSKDSTYSLSSTLTLSKADYEKHKVYACEVTHQGLSSPVTKSFNRGEC
# scFv: EVQLVESGGGLIQPGGSLRLSCAASGFTFNTYAMNWVRQAPGKGLEWVARIRSKYNNYATYYADSVKDRFTISRDDSKSTLYLQMNNLRAEDTAVYYCVRHGNFGNSYVSWFAYWGQGTLVTVSSGKPGSGKPGSGKPGSGKPGSQAVVTQEPSLTVSPGGTVTLTCRSSTGAVTTSNYANWVQQKPGQAPRGLIGGTNKRAPGTPARFSGSLLGDKAALTLSGAQPEDEAEYYCALWYSNLWVFGGGTKVTVL[human IgG1 Fc with C220S L234A L235A N297G T366W (EU numbers) cut from this listing]
# notes: anti-TSPAN8 heavy chain (Fab-Fc) + light chain + anti-CD3 scFv-Fc; vectors ApiD00067, ApiD00068, ApiD00000; also called anti-TSPAN8/anti-CD3 bispecific antibody containing anti-CD3 scFv before modification
# B2: BTE-0055 (bispecific antibody)
# chain 1: B1 heavy
# chain 2: B1 light
# chain 3: B1 scFv with A236V, W238Y
# B3: BTE-0051 (bispecific antibody)
# chain 1: B1 heavy
# chain 2: B1 light
# chain 3: B1 scFv with W111Y
# B4: BTE-0058 (bispecific antibody)
# chain 1: B1 heavy
# chain 2: B1 light
# chain 3: B1 scFv with W243F
# B5: BTE-0007 (bispecific antibody)
# chain 1: B1 heavy
# chain 2: B1 light
# chain 3: B1 scFv with N30S, T31S
# B6: BTE-0056 (bispecific antibody)
# chain 1: B1 heavy
# chain 2: B1 light
# chain 3: B1 scFv with W238Y
# B7: BTE-0008 (bispecific antibody)
# chain 1: B1 heavy
# chain 2: B1 light
# chain 3: B1 scFv with N35S
# B8: BTE-0064 (bispecific antibody)
# chain 1: B1 heavy
# chain 2: B1 light
# chain 3: B1 scFv with V183F
# B9: BTE-0067 (bispecific antibody)
# chain 1: B1 heavy
# chain 2: B1 light
# chain 3: B1 scFv with V183L
# B10: BTE-0006 (bispecific antibody)
# chain 1: B1 heavy
# chain 2: B1 light
# chain 3: B1 scFv with N30S, T31D, Y32H
# B11: BTE-0057 (bispecific antibody)
# chain 1: B1 heavy
# chain 2: B1 light
# chain 3: B1 scFv with W243Y
# B12: BTE-0009 (bispecific antibody)
# chain 1: B1 heavy
# chain 2: B1 light
# chain 3: B1 scFv with N35H
# B13: BTE-0052 (bispecific antibody)
# chain 1: B1 heavy
# chain 2: B1 light
# chain 3: B1 scFv with A236L
# Molecular target: T1, CD3εδ complex protein (human; alpaca, UniProt P07766 23-126; P04234 22-105)
# T1 construct: they are not part of the secreted protein; also called human CD3; CD386 complex protein
# Experiment: ELISA, CD3 complex immobilized; average of several plates
# Protocol: Binding activities of the anti-TSPAN8/anti-CD3 bispecific antibodies BTE-0001 to BTE-0067 to CD3 were evaluated by the ELISA. ELISA was performed according to a conventional method. The […] complex protein obtained in Example 1-3 was immobilized on a plate. BTE-0001 to BTE-0067 were used as the test antibodies. As a secondary antibody, Goat anti-Human IgG Fc, Multi-Species SP ads-HRP (2014-05, available from SouthernBiotech) was used. TMB+Substrate-Chromogen (S1599, available from Dako) was used as the detection reagent. Infinite M200pro (available from Tecan) was used to measure the absorbance. The EC50 values were calculated using variable slope model (four parameters) in GraphPad Prism with the maximum value in the same plate fixed at the top and the minimum value in the blank in the same plate fixed at the bottom. Since BTE-0001 was always measured in each plate as a control, only the EC50 value of BTE-0001 was expressed as the average value of a plurality of plates.
# UniProt P07766, sequence (P07766 23-126 limits assumed, stated change not applied, form in doubt, chain 1 of 2): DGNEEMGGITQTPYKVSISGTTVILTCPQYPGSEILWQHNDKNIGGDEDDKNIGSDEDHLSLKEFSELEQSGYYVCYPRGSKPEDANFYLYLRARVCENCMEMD
# UniProt P07766, sequence (P04234 22-105 limits assumed, stated change not applied, form in doubt, chain 2 of 2, further chain): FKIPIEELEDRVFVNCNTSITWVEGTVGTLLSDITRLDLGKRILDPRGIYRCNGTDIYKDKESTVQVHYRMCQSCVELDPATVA
row,Binder,EC50 [µg/mL]
1,B1,0.00652

# Molecular target: T1, CD3εδ complex protein (printed 'CD388 …)
# Experiment: ELISA, CD3 complex immobilized
row,Binder,EC50 [µg/mL]
1,B2,0.0355
2,B3,0.00735
3,B4,0.847
4,B5,0.00379
5,B6,0.0989
6,B7,0.431
7,B8,1.87
8,B9,0.00334
9,B10,0.224
10,B11,1.01
11,B12,0.286
12,B13,1.23
